# Experimental data taken from the supplement of paper PMC8728848.
# Some of the results follow.
# B1: Banana lectin (Musa acuminata) (protein)
# chain: MNGAIKVGAWGGNGGSAFDMGPAYRIISVKIFSGDVVDGVDVTFTYYGKTETRHYGGSGGTPHEIVLQEGEYLVGMAGEVANYTGAVVLGKLGFSTNKKAYGPFGNTGGTPFSLPIAAGKISGFFGRGGKFLDAIGVYLEPLEHHHHHH
# Columns and labels:
# Test in all cases: glycan array binding signal (z-score within array); higher = stronger binding
# Conditions in all cases: glycan notation: IUPAC condensed, linker removed; mutation: H84T
# [1] = biological target: Fuc(a1-2)[Gal(a1-3)]Gal(b1-4)GlcNAc(b1-2)Man(a1-3)[Fuc(a1-2)[Gal(a1-3)]Gal(b1-4)GlcNAc(b1-2)Man(a1-6)]Man(b1-4)GlcNAc(b1-4)GlcNAc
# How it was run: (§1)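 Glycan array data came from 3228 arrays in the Consortium for Functional Glycomics database, and only arrays with an available protein sequence were kept. Glycan names were put into IUPAC-condensed notation, and columns mapping to the same glycan were averaged. The binding signal is a within-array Z-score, averaged across arrays of one protein sequence run at different concentrations or buffers and across linkers. A negative Z-score can be read as non-binding.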
# [2] = biological target: Fuc(a1-2)[Gal(a1-3)]Gal(b1-4)GlcNAc(b1-2)Man(a1-3)[Fuc(a1-2)[Gal(a1-3)]Gal(b1-4)GlcNAc(b1-2)Man(a1-6)]Man(b1-4)GlcNAc(b1-4)[Fuc(a1-6)]GlcNAc
# How it was run: as §1
# [3] = biological target: Fuc(a1-2)[Gal(a1-3)]Gal(b1-4)GlcNAc(b1-3)GalNAc
# How it was run: as §1
# [4] = biological target: Fuc(a1-2)[Gal(a1-3)]Gal(b1-4)GlcNAc(b1-3)[Fuc(a1-2)[Gal(a1-3)]Gal(b1-4)GlcNAc(b1-6)]GalNAc
# How it was run: as §1
# [5] = biological target: Fuc(a1-2)[Gal(a1-3)]Gal(b1-4)GlcNAc(b1-6)GalNAc
# How it was run: as §1
# [6] = biological target: Fuc(a1-2)[Gal(a1-3)]Gal(b1-4)[Fuc(a1-3)]Glc
# How it was run: as §1
# [7] = biological target: Fuc(a1-2)[Gal(a1-3)]Gal(b1-4)[Fuc(a1-3)]GlcNAc
# How it was run: as §1
# [8] = biological target: Fuc(a1-2)[Gal(a1-3)]Gal(b1-4)[Fuc(a1-3)]GlcNAc(b1-3)GalNAc
# How it was run: as §1
# [9] = biological target: Fuc(a1-2)[Gal(a1-4)]Gal(b1-4)GlcNAc
# How it was run: as §1
# [10] = biological target: Fuc(a1-2)[GalNAc(a1-3)]Gal
# How it was run: as §1
# [11] = biological target: Fuc(a1-2)[GalNAc(a1-3)]Gal(b1-3)GalNAc(a1-3)[Fuc(a1-2)]Gal(b1-4)GlcNAc
# How it was run: as §1
# [12] = biological target: Fuc(a1-2)[GalNAc(a1-3)]Gal(b1-3)GalNAc(b1-3)Gal(a1-4)Gal(b1-4)Glc
# How it was run: as §1
# [13] = biological target: Fuc(a1-2)[GalNAc(a1-3)]Gal(b1-3)GlcNAc
# How it was run: as §1
# [14] = biological target: Fuc(a1-2)[GalNAc(a1-3)]Gal(b1-3)GlcNAc(b1-2)Man(a1-3)[Fuc(a1-2)[GalNAc(a1-3)]Gal(b1-3)GlcNAc(b1-2)Man(a1-6)]Man(b1-4)GlcNAc(b1-4)GlcNAc
# How it was run: as §1
# [15] = biological target: Fuc(a1-2)[GalNAc(a1-3)]Gal(b1-3)GlcNAc(b1-2)Man(a1-3)[Fuc(a1-2)[GalNAc(a1-3)]Gal(b1-3)GlcNAc(b1-2)Man(a1-6)]Man(b1-4)GlcNAc(b1-4)[Fuc(a1-6)]GlcNAc
# How it was run: as §1
# [16] = biological target: Fuc(a1-2)[GalNAc(a1-3)]Gal(b1-3)GlcNAc(b1-3)GalNAc
# How it was run: as §1
# [17] = biological target: Fuc(a1-2)[GalNAc(a1-3)]Gal(b1-3)GlcNAc(b1-6)GalNAc
# How it was run: as §1
# [18] = biological target: Fuc(a1-2)[GalNAc(a1-3)]Gal(b1-4)Glc
# How it was run: as §1
# [19] = biological target: Fuc(a1-2)[GalNAc(a1-3)]Gal(b1-4)GlcNAc
# How it was run: as §1
# [20] = biological target: Fuc(a1-2)[GalNAc(a1-3)]Gal(b1-4)GlcNAc(b1-2)Man
# How it was run: as §1
# [21] = biological target: Fuc(a1-2)[GalNAc(a1-3)]Gal(b1-4)GlcNAc(b1-2)Man(a1-3)[Fuc(a1-2)[GalNAc(a1-3)]Gal(b1-4)GlcNAc(b1-2)Man(a1-6)]Man(b1-4)GlcNAc(b1-4)GlcNAc
# How it was run: as §1
# [22] = biological target: Fuc(a1-2)[GalNAc(a1-3)]Gal(b1-4)GlcNAc(b1-2)Man(a1-3)[Fuc(a1-2)[GalNAc(a1-3)]Gal(b1-4)GlcNAc(b1-2)Man(a1-6)]Man(b1-4)GlcNAc(b1-4)[Fuc(a1-6)]GlcNAc
# How it was run: as §1
# [23] = biological target: Fuc(a1-2)[GalNAc(a1-3)]Gal(b1-4)GlcNAc(b1-3)Gal(b1-4)GlcNAc
# How it was run: as §1
# [24] = biological target: Fuc(a1-2)[GalNAc(a1-3)]Gal(b1-4)GlcNAc(b1-3)Gal(b1-4)GlcNAc(b1-3)Gal(b1-4)GlcNAc
# How it was run: as §1
# [25] = biological target: Fuc(a1-2)[GalNAc(a1-3)]Gal(b1-4)GlcNAc(b1-3)GalNAc
# How it was run: as §1
# [26] = biological target: Fuc(a1-2)[GalNAc(a1-3)]Gal(b1-4)GlcNAc(b1-3)[Fuc(a1-2)[GalNAc(a1-3)]Gal(b1-4)GlcNAc(b1-6)]GalNAc
# How it was run: as §1
# [27] = biological target: Fuc(a1-2)[GalNAc(a1-3)]Gal(b1-4)GlcNAc(b1-6)GalNAc
# How it was run: as §1
# [28] = biological target: Fuc(a1-2)[GalNAc(a1-3)]Gal(b1-4)[Fuc(a1-3)]GlcNAc
# How it was run: as §1
# [29] = biological target: Fuc(a1-2)[GalNAc(a1-3)]Gal(b1-4)[Fuc(a1-3)]GlcNAc(b1-3)GalNAc
# How it was run: as §1
# [30] = biological target: Fuc(a1-2)[GalNAc(a1-4)]Gal(b1-4)GlcNAc
# How it was run: as §1
binder,measurement,setting,value
B1,glycan array binding signal (z-score),[1],-0.124
same,glycan array binding signal (z-score),[2],0.592
same,glycan array binding signal (z-score),[3],-0.149
same,glycan array binding signal (z-score),[4],-0.144
same,glycan array binding signal (z-score),[5],-0.178
same,glycan array binding signal (z-score),[6],-0.155
same,glycan array binding signal (z-score),[7],-0.159
same,glycan array binding signal (z-score),[8],-0.193
same,glycan array binding signal (z-score),[9],-0.197
same,glycan array binding signal (z-score),[10],-0.169
same,glycan array binding signal (z-score),[11],-0.161
same,glycan array binding signal (z-score),[12],-0.165
same,glycan array binding signal (z-score),[13],-0.162
same,glycan array binding signal (z-score),[14],-0.141
same,glycan array binding signal (z-score),[15],0.369
same,glycan array binding signal (z-score),[16],-0.164
same,glycan array binding signal (z-score),[17],-0.177
same,glycan array binding signal (z-score),[18],-0.172
same,glycan array binding signal (z-score),[19],-0.183
same,glycan array binding signal (z-score),[20],-0.15
same,glycan array binding signal (z-score),[21],-0.086
same,glycan array binding signal (z-score),[22],0.3
same,glycan array binding signal (z-score),[23],-0.197
same,glycan array binding signal (z-score),[24],-0.18
same,glycan array binding signal (z-score),[25],-0.189
same,glycan array binding signal (z-score),[26],-0.161
same,glycan array binding signal (z-score),[27],-0.147
same,glycan array binding signal (z-score),[28],-0.173
same,glycan array binding signal (z-score),[29],-0.18
same,glycan array binding signal (z-score),[30],-0.191
